Laboratory results: PubChem BioAssay AID686971 (National Center for Advancing Translational Sciences (NCATS), 2013)
Hit rate of the full screen: of about 360,000 compounds, about 7,500 (2.1%) were called active. This list was built around the results that the source calls inconclusive (neither active nor inactive); the mix of calls is not that of the screen. Calls come from the whole dose curve; as a rule, active = well fitted cell-killing curve with a large enough effect; inconclusive = small, poorly fitted or top-dose-only effect, or effect the other way, or another doubt; inactive = no such curve, though single readings can be large or run the other way. Potencies of inconclusive entries are left out as doubtful fits.
Potency is the fitted concentration of half-maximal effect; tags give direction and shape of the fitted curve.

Assay: qHTS for induction of synthetic lethality in tumor cells producing 2HG: qHTS for the HT-1080-IDH1KD cell line;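 for activity, negative = toxicity: 0% = DMSO wells and -100% = cell-free medium wells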
Details: HT-1080 IDH1 knockdown viability, ATP luminescence, 48 h; activity, negative = toxicity: at 46.1 µM (top of the series) unless noted
How it was run: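 Viability of IDH1-knockdown HT-1080 fibrosarcoma cells was assessed by CellTiter-Glo after 48 h at 37 °C with titrated compound; concentration-effect curves were classified by fit quality and response size.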
In the case of `O=C(CN1CCc2cc3c(cc2C1)OCCCO3)Nc1ccc(F)cc1`, the Potency is reported as “inactive”.
For `CC1=C([N+](=O)[O-])C(c2ccccc2)C2=C(N1)c1ccccc1C2=O` (configuration not stated), the Potency was inconclusive [cytotoxic, full curve].
For `CCOC(=O)Nc1ccc2c(c1)C(=NNC(=S)NC)c1ccccc1-2`, the Potency was inconclusive [cytotoxic, single point].
With `CCCCN(CCCC)CC(O)CN(c1cc([N+](=O)[O-])ccc1OC)S(=O)(=O)c1ccccc1` (configuration not stated) the Potency was inconclusive [cytotoxic, partial curve].
With `O=C(CNCCc1ccc(Cl)cc1)Nc1ccc(C(=O)N2CCCCC2)cc1` the Potency was inconclusive [cytotoxic, partial curve].
For `O=C(Nc1ccc(CN2CCOCC2)cc1)c1ccc(-c2ccc(Cl)cc2Cl)o1`, the Potency was inconclusive [cytotoxic, single point].
With `COc1ccccc1Cc1c(-c2ccccc2)nc2c(C)cc(Br)cn12` the Potency was inconclusive [cytotoxic, single point].
In the case of `COc1ccc(N2C(c3ccsc3)=Cc3cc4c(cc3C2c2c[nH]c3ccccc23)OCO4)cc1` (configuration not stated), the Potency is reported as inconclusive [cytotoxic, single point].
With `Cc1ccc2nc(-c3ccncc3)cc(C(=O)Nc3ccc4c(c3)OCCO4)c2c1` the Potency was active: 9.2 µM.
For `CCCn1nnc(NC(=O)c2ccc(Br)cc2)n1`, the Potency was inconclusive [rising, single point].
For `CCOC(=O)c1[nH]c(C)c(C(=O)OCC(=O)NC(C)c2ccc(F)cc2)c1C` (configuration not stated), the Potency was active: 3.66 µM.
For `O=C(NC1CCCCC1)c1cc(S(=O)(=O)N2CCOCC2)c(Cl)cc1Cl`, the Potency was inconclusive [cytotoxic, full curve, poor fit].
With `O=C(CSCc1ccc(Cl)cc1Cl)Nc1ccccc1C(=O)Nc1ccc(C(=O)O)cc1` the Potency was inconclusive [cytotoxic, single point].
For `O=C(Nc1cc(C(F)(F)F)ccc1Cl)c1ccc(NC(=O)C(F)(F)F)cc1`, the Potency was “inactive”.
For `O=C(Nc1cccc(F)c1)NC1CCCCCCC1`, the Potency was inconclusive [cytotoxic, single point].
With `O=C(c1ccco1)N1CCN(c2ncnc3scc(-c4cccs4)c23)CC1` the Potency was active: 7.94 µM.
For `Cc1ccc(C)c(NC(=S)N/N=C2/CCCCc3ccccc32)c1`, the Potency was inconclusive [cytotoxic, single point].
With `CCc1cccc2c(C(=O)C(NCCCOC)c3ccccc3)c[nH]c12` (configuration not stated) the Potency was inconclusive [cytotoxic, single point].
For `Cc1ccc(NC(=O)C(=O)NCCc2c[nH]c3ccccc23)cc1C`, the Potency was inconclusive [cytotoxic, full curve].
In the case of `C/C(=N\NC(=O)CC(C)C)c1c(C(F)(F)F)[nH]n(-c2nc3ccccc3s2)c1=O`, the Potency is reported as inconclusive [cytotoxic, single point].
For `COC(=O)c1cccc(NC(=S)Nc2ccccc2Cl)c1`, the Potency was “inactive”.
With `COc1ccc(CCNC(=O)COc2ccc(S(=O)(=O)NC3CCCCC3)cc2Cl)cc1` the Potency was inconclusive [cytotoxic, partial curve].
With `COc1ccc(/C(C)=N/Nc2ccccc2Cl)c(O)c1` the Potency was inconclusive [cytotoxic, partial curve, poor fit].
In the case of `Cc1ccc(Cn2ccsc2=NC(=O)COC(=O)C(C)C)cc1`, the Potency is reported as inconclusive [cytotoxic, single point].
With `CCCCCC(=O)N1C[C@H](O)[C@@H](n2cc(-c3ccc(F)cc3)nn2)C[C@@H]1c1ccc(Cl)cc1` the Potency was inconclusive [cytotoxic, partial curve].
With `Brc1ccc2nc(-c3ccco3)c(Cc3ccsc3)n2c1` the Potency was inconclusive [cytotoxic, single point].
In the case of `Cc1ccc2nc3c(cc(C(=O)NCCc4ccccc4)c(=N)n3CCN3CCOCC3)c(=O)n2c1`, the activity, negative = toxicity is reported as inconclusive: -5.09% [cytotoxic].
In the case of `OC(c1cccc(Cl)c1)c1nc(/C=C/c2ccccc2)cs1` (configuration not stated), the Potency is reported as inconclusive [cytotoxic, single point].
With `N#CCC(=O)Nc1ccccc1C(=O)O` the Potency was “inactive”.
In the case of `N#Cc1c(C(F)(F)F)cc(-c2ccc(Cl)cc2)[nH]c1=O`, the Potency is reported as inconclusive [cytotoxic, single point].
With `COc1ccc([C@H]2CC(=O)C=C(c3c(OC)cccc3OC)C2)cc1` the Potency was active: 5.8 µM.
For `COc1ccc(C(=O)N2N=C(c3cccs3)CC2c2ccccc2O)cc1` (configuration not stated), the Potency was inconclusive [cytotoxic, single point].
In the case of `COc1cc(-c2coc3c(C(=O)NCc4ccc(OC)c(OC)c4)cccc23)ccc1O`, the Potency is reported as active: 3.26 µM.
For `Cc1ccc(C(=O)c2cc(C)sc2NC(=O)CN2CCN(C(=O)c3ccco3)CC2)cc1`, the Potency was inconclusive [cytotoxic, single point].
For `O=C(CSc1ccc(S(=O)(=O)N2CCOCC2)cn1)Nc1ccc(F)c(F)c1`, the Potency was inconclusive [cytotoxic, single point].
With `Cc1ccc(NC(=O)C(C)c2ccc(-c3ccccc3)c(F)c2)cc1` (configuration not stated) the Potency was active: 13 µM.
With `Cc1nc2ccc(NC(=O)c3ccc(Cl)c(S(=O)(=O)N(C)c4ccccc4)c3)cc2s1` the Potency was inconclusive [cytotoxic, partial curve].
In the case of `O=C(NCCc1ccccc1)C(=O)Nc1ccc([N+](=O)[O-])cc1`, the Potency is reported as “inactive”.
In the case of `CCCCNC(=O)C(C)N(CCN(C)C)C(=O)CCCCCN1C(=O)NC(c2ccc(Cl)cc2)C(C(=O)OCc2ccccc2)=C1C` (configuration not stated), the Potency is reported as inconclusive [cytotoxic, single point].
In the case of `CCN1C/C(=C/c2cccc([N+](=O)[O-])c2)C(=O)/C(=C/c2cccc([N+](=O)[O-])c2)C1`, the Potency is reported as active: 3.26 µM.
With `Cc1ccc(-c2nc3ccccc3s2)cc1S(=O)(=O)N1CCOCC1` the Potency was active: 17.8 µM.
With `COc1ccc(/C=N\NC(=O)COc2ccc(C(C)(C)C)cc2)cc1Cn1nc(C)cc1C` the Potency was inconclusive [cytotoxic, single point].
For `CC(=O)n1c2ccccc2c2ccccc21`, the Potency was “inactive”.
For `CCOc1ccccc1Nc1nnc(SCC(=O)Nc2cc(C)on2)s1`, the Potency was inconclusive [cytotoxic, single point].
With `O=C(Cc1cccc2ccccc12)N/N=C/c1ccc2cccc(O)c2n1` the Potency was active: 23.1 µM.
In the case of `Cc1ccc(C(=O)CC(=O)c2ccccc2C)c(O)c1`, the Potency is reported as inconclusive [cytotoxic, partial curve].
In the case of `CCn1c(=O)n(CC)c2cc(S(=O)(=O)Nc3ccccc3C)c(C)cc21`, the Potency is reported as inconclusive [cytotoxic, single point].
For `O=C(NCc1ccc2c(c1)OCO2)c1cccc([N+](=O)[O-])c1`, the Potency was “inactive”.
With `COc1cc2c(cc1OC)CN(c1nc(CN3CCCC3)nc3sc(C)c(C)c13)CC2` the Potency was inconclusive [cytotoxic, single point].
With `C(#Cc1ccccc1)C[N+]1(CC#Cc2ccccc2)CCCCC1` the Potency was inconclusive [cytotoxic, partial curve].
For `CC(=O)c1ccc(OCc2cc(C(=O)N3CCC(c4ccncc4)CC3)no2)cc1`, the Potency was active: 23.1 µM.
For `COc1ccc(C2C3=C(CC(C)(C)CC3=O)Oc3ncn(Cc4ccccc4)c(=N)c32)cc1` (configuration not stated), the Potency was inconclusive [cytotoxic, partial curve, poor fit].
In the case of `COC(=O)c1cc(OC)c(OC)cc1NC(=O)Nc1ccc(OC)cc1`, the Potency is reported as “inactive”.
In the case of `CCCc1ccc(OCc2nc(-c3ccc(NC(=O)c4cccs4)cc3)no2)cc1`, the Potency is reported as inconclusive [cytotoxic, single point].
For `O=C(N/N=C/c1cc([N+](=O)[O-])ccc1O)C(O)(c1ccccc1)c1ccccc1`, the Potency was inconclusive [cytotoxic, single point].
For `COc1cccc(CNC(=O)c2ccc(Cl)c(S(=O)(=O)N3CCOCC3)c2)c1`, the Potency was “inactive”.
For `O=C1/C(=C/c2cccnc2)Oc2cc(OS(=O)(=O)c3ccccc3)ccc21`, the Potency was inconclusive [cytotoxic, single point].
In the case of `CCOC(=O)c1c(NC(=O)CN2C(=O)NC(C)(c3ccccc3)C2=O)sc(C)c1C` (configuration not stated), the Potency is reported as inconclusive [cytotoxic, single point].
In the case of `O=C(CN1C(=O)S/C(=C\C=C\c2ccccc2)C1=O)Nc1cccc(O)c1`, the Potency is reported as inconclusive [cytotoxic, single point].
For `COc1ccccc1C1c2ccc3ccccc3c2Oc2ncn(CCCO)c(=N)c21` (configuration not stated), the Potency was active: 23.1 µM.
In the case of `Cc1ccc(C2Nc3ccccc3C(=O)N2Cc2ccco2)cc1` (configuration not stated), the Potency is reported as inconclusive [cytotoxic, single point].
For `Nc1nc(-c2cccc(Br)c2)cs1`, the Potency was inconclusive [cytotoxic, single point].
In the case of `CCOc1ccc(CN2CCNC(=O)C2CC(=O)NCCc2nc(C)c3c(n2)CCC3)cc1` (configuration not stated), the Potency is reported as inconclusive [rising, single point].
With `Cc1nc(N(CCO)C2CCCCC2)c2nnn(Cc3ccccc3)c2n1` the Potency was inconclusive [cytotoxic, single point].
With `Cn1c(-c2ccccc2)c(C(=O)CCl)c2ccccc21` the Potency was active: 10.3 µM.
For `Cc1cc2ccc(C)c(C)c2nc1SCC(=O)c1cccs1`, the Potency was inconclusive [cytotoxic, single point].
With `Cc1cc(NC(=O)c2ccc([N+](=O)[O-])o2)ccc1NC(=O)c1ccco1` the Potency was active: 5.8 µM.
